In the RNAGym collection of RNA variant scans (doi:10.7554/elife.90254):
Read counts are not given, so values of variants with three or more changes are uncertain.

B1: LINE1-mini (parent)
chain: GGCAGAGCUCAACACAGCGUGGCAAAGUGGCUGUGGCUAGACUGCC

Variants of: B1
Assay: self-cleavage, relative activity (ratio to wild type); higher = more cleavage; in vitro, sequencing; the parent is a self-cleaving ribozyme

Row | Variant | self-cleavage
1 | C8A A12G C45U | 0.04
2 | A11G C15A A25G G36U | 0.01
3 | G2U C8A G27A C42U | 0.04
4 | G5U C15U U38A | 0.1
5 | A11C U28A U38G | 0.01
6 | G1C G7C C15U G27C C42U | 0.01
7 | U9G C13A C23G C31A U32C G36A | 0.04
8 | C3A G5U C42A | 0.15
9 | G22A C23U G33U | 1.16
10 | G19C G36U G40A | 0.09
11 | A4C A11G G19U | 0.01
12 | C8A A14U C31U C37G | 0.04
13 | A6C C23A G40C C42U | 0.14
14 | C3G A4U C10U G36U | 0.03
15 | G17C G19C U38C | 0.03
16 | C3A A11C C42G | 0.03
17 | A12G A16C U34G C45G | 0.12
18 | C3A U9G G21U U28G C31U | 0.02
19 | C8U A12G G29A | 0.04
20 | A4G U9A U34C | 0.04
21 | A4C C8A U9C C23A G35U | 0.11
22 | C3A U20G U28G | 0.06
23 | A11U A25U G27A U34A | 0.01
24 | G21C G35U C37U | 0.06

Row | Variant | self-cleavage
25 | C15G G21A A26C | 0
26 | G1U G2A G5A G36A G40C | 0.08
27 | G21C G30C A41C | 0.08
28 | G2U C18A G33U C37A A39C | 0
29 | A16C C18G G22U | 0.01
30 | C13U U20C U43C | 0.05
31 | G7A G29U C31U | 0.07
32 | A4G A16C G22A G30C A39G | 0.2
33 | G2C G33A A39G C45G | 0.01
34 | A14G G17U U32G G33A C45A | 0.04
35 | A24G G33A C37A | 0.07
36 | G2C G17A U28C | 0.03
37 | C10G U20G C46U | 0.04
38 | G21A G30A C46U | 2.02
39 | G2A A11C U34C | 0.06
40 | G1C C8U A12G G36A | 0.01
41 | A12U C13U G22U G29A U32A C45U | 0.03
42 | G1C A6C U28G | 0.02
43 | C10A G17U A24C G27A | 0.02
44 | U9C C18U U28C G36C | 0
45 | C3U C8A C23G | 0.33
46 | G17A C31A U32G G36U | 0.04
47 | A11G A25G G40A | 0.04
48 | A14C C18U U34C U43A | 0.2

Row | Variant | self-cleavage
49 | A4U A12C G17U | 0
50 | G1A C3U A11U | 0.13
51 | G5U A14C C18U C23U | 0.01
52 | G21A G22U G29A | 1.17
53 | U32G U38G C45G | 0.05
54 | C3U C13U C23A G30C | 0.04
55 | C3U A6C A12U A16G G17C A25G C31U G35U | 0.05
56 | U20G U38G U43G | 0
57 | G7C U9G G44U | 0.04
58 | G21A G22C G30A C37G | 0.03
59 | C3G C10A U38G | 0.04
60 | G30A C31G G40U U43C | 0.1
61 | G1U A14U G40C | 0.05
62 | G19U U34C G40C A41G | 0.08
63 | A14G A41C U43G | 0.29
64 | A6C A14G U28A U32G | 0.22
65 | C3A G36U A39U | 0.23
66 | U9G C15U A24G | 0.18
67 | A4C G5U C31U | 0
68 | G2C A6G C18A G35U | 0.06
69 | C18U A25U U28A | 0.01
70 | C10G C13U U20A A39G G40U | 0.01
71 | C3G G33U C37G G44U | 0
72 | U9C A11U G19U | 0.03

Row | Variant | self-cleavage
73 | C3A C13U C15U | 0.24
74 | C3U A12C A25U G30U G33A | 0.1
75 | U9A G22A A26C C45U | 0.22
76 | G2C A16G G35U | 0.01
77 | A6G A12C U43A | 0.03
78 | G2C C15G C18A G27A G35U | 0.01
79 | U9A C31G G36U | 0.03
80 | C3G A6C G35C C42G | 0.03
81 | A24U G33C U34G | 0.01
82 | A16U G21A A24G | 0.1
83 | C3U C18U G21A C37U | 0.16
84 | A12U C23A G30C C45G C46G | 0.02
85 | G5U A41U G44U | 0.01
86 | C3A A6U A14G G22U C23G | 0.11
87 | C10A A16G G19A G40U C46A | 0
88 | C13U U34A G35C | 0.03
89 | A14G G35U C45A | 0.36
90 | G1C G21U U32G | 0.01
91 | A14C U34A A41U | 0.07
92 | A6U C10A C13A G35U | 0.06
93 | A12U G21A A25U | 0.35
94 | G7A A12C C23U G27U | 0.01
95 | C3U G27C G36C A41U U43A | 0
96 | C23G G30U C46G | 1.92

Row | Variant | self-cleavage
97 | G7A G17C U38C | 0.11
98 | C23A A25C U43C | 0.07
99 | C3G C8A A11G | 0.05
100 | G1A C15G G19A C31A U34C U38C | 0
101 | G22C U32C G35A | 0.12
102 | C3G C10A C18U U28C | 0.05
103 | C3U A26G C42G C45G | 0.11
104 | G1U C8U C23G G33U | 0.08
105 | G7U A26C G44A C46U | 0.06
106 | U9A A12U A16C G17C G21C U28G | 0.04
107 | C8U A12U A14C A25U A39C | 0.1
108 | A26U G30U C45U | 0.17
109 | U9C A14U G19A A39G | 0.01
110 | A4U U32G U34A C37G | 0.05
111 | A16G G19U G22U G30A G36C G40A | 0.13
112 | G40A U43C C46G | 0.1
113 | A16U C18U C23A A39G | 0.03
114 | A6G C8U A16C U38A | 0
115 | C3G C10A G30U C37A | 0.02
116 | C3G G17A G19A A26U A39C C45U | 0.01
117 | C18G G19A G35A | 0.06
118 | U20G G22C A26U G44C | 0.06
119 | G7A G21C C46A | 0.04
120 | G1A U9G C23A G33C | 0.05

Row | Variant | self-cleavage
121 | C8A A11G A12U C23U U38G | 0
122 | G2U C31G U32C | 0.03
123 | C3G C10A A24G | 0.1
124 | A4C G7A U32C | 0.3
125 | C10A C15A A16U U43C | 0.06
126 | G21U A39G A41U | 0.04
127 | G1U C10A C37U | 0.01
128 | C10A A11G G22U U43A C46A | 0
129 | G2A G5A U9C U32A | 0.05
130 | G1U G2U C3U | 0.34
131 | A4G A6C A11G | 0.02
132 | C8G A16C G36C C45G | 0.02
133 | C8A A14U A26C G27C U34A | 0.12
134 | G5A A14G A26C | 0.07
135 | U9A G29A U32C | 0.02
136 | C3U G7C G17U A41G | 0.06
137 | G5C A6C A11G G33U | 0.02
138 | G29U U43A C45G | 0.09
139 | G2A C15U G17U G30U G36C | 0.08
140 | G5C C8U C10A A11C | 0
141 | G2A G5C C37A | 0.03
142 | C10A C13U A25U C31U | 0.04
143 | G2U G5A C23A G30C G33C | 0.04
144 | A11C C13A A41C | 0.05

Row | Variant | self-cleavage
145 | G2A C15A A39U C42A C45G | 0.17
146 | C13U C15U C31U G40C | 0.22
147 | G5U A24C G33A | 0.03
148 | G2U C10A G21U G30C | 0.02
149 | C8A G29C G40U | 0.09
150 | G1A G5C A6C G7C G27U G44A | 0.23
151 | G5U C13A G36C | 0.04
152 | A6U C15A G40C C42U | 0.39
153 | G2A C18U G19A G30A | 2.45
154 | U9G A12C A14G A24G U43A | 0.02
155 | G7A C8A G36U | 0.21
156 | G33U U43A G44A | 0.08
157 | G21U U43C G44C | 0.07
158 | G1C A16C G36U | 0.02
159 | C13U A25C C42A | 0.04
160 | A4G C15U G17C U32A | 0.28
161 | G2U U9G A16C | 0.14
162 | G1C A11U A12C G17A C23U G35C | 0
163 | A24C G27C G29A U43G | 0.01
164 | G17A G19U G21U C23G A24U | 0.07
165 | A25C G35U A39C | 0.11
166 | A6C A16U G27C | 0.21
167 | C10U C13A A24G | 0.01
